The text below walks through data of US20210380680A1 (ZLLP, published 2021).

In the assay the target is human Claudin 18.2 (CLDN18.2) (human, UniProt P56856-2 1-261). The assay can be described thus: cell-based or functional assay.

B1: 282A12F3 (T62A)-vcMMAE (other)
heavy: QVQLKESGPVLVQPSQTLSLTCTVAGFSLTSYNVYWVRQPPGKGLEWMGVIWNTGATRYNSALKSRLSISKDTSKSQVFLKMNSLQTEDTATYYCARDSAMPAIPFAYWGQGTLVTVSS[in this place human IgG1 constant region]
light: DIVMTQSPSSLAVSAGETVTINCKSSQSLFGSVRQKNYLAWYQQKPGQSPKLLIYLASTRESGVPDRFIGSGSGTDFTLTISSVQAEDLAKYYCQQYYDIPWTFGGGTKLELKRTVAAPSVFIFPPSDEQLKSGTASVVCLLNNFYPREAKVQWKVDNALQSGNSQESVTEQDSKDSTYSLSSTLTLSKADYEKHKVYACEVTHQGLSSPVTKSFNRGEC
modifications: mc-vc-PAB-MMAE on reduced cysteines, average DAR 3.57, 3.70 or 3.94
B1: the “ADC IC50, HEK293-CLDN18.2, DAR 3.57” value came out at 0.44 nM; the “ADC IC50, HEK293-CLDN18.2, DAR 3.7” value is 0.35 nM; the “ADC IC50, HEK293-CLDN18.2, DAR 3.94” value was found to be 0.38 nM; the “ADC IC50, NCI-N87-CLDN18.2, DAR 3.57” value is 10.8 nM. Moreover, the “ADC IC50, NCI-N87-CLDN18.2, DAR 3.7” value came to 9 nM; the “ADC IC50, NCI-N87-CLDN18.2, DAR 3.94” value came out at 7.6 nM; the “ADC IC50, NUGC4-CLDN18.2, DAR 3.57” value was 25.6 nM; the “ADC IC50, NUGC4-CLDN18.2, DAR 3.7” value is 21.7 nM. Further, the “ADC IC50, NUGC4-CLDN18.2, DAR 3.94” value came out at 20.1 nM; the “ADC IC50, Panc1-CLDN18.2, DAR 3.57” value was 1.5 nM; the “ADC IC50, Panc1-CLDN18.2, DAR 3.7” value came to 1.1 nM; the “ADC IC50, Panc1-CLDN18.2, DAR 3.94” value worked out at 1.3 nM.
